The whole screen tested about 310,000 compounds, of which about 2,200 (0.71%) showed an effect of 50% or more. Effects have a minus sign here. The list shows a part of the results.
These compounds were tested against human ether-à-go-go-related gene (hERG) potassium channel (human, UniProt Q12809) (assay: primary screen, population patch clamp on CHO cells stably expressing hERG).
Sequence of human ether-à-go-go-related gene (hERG) potassium channel (Q12809 whole entry, looked up): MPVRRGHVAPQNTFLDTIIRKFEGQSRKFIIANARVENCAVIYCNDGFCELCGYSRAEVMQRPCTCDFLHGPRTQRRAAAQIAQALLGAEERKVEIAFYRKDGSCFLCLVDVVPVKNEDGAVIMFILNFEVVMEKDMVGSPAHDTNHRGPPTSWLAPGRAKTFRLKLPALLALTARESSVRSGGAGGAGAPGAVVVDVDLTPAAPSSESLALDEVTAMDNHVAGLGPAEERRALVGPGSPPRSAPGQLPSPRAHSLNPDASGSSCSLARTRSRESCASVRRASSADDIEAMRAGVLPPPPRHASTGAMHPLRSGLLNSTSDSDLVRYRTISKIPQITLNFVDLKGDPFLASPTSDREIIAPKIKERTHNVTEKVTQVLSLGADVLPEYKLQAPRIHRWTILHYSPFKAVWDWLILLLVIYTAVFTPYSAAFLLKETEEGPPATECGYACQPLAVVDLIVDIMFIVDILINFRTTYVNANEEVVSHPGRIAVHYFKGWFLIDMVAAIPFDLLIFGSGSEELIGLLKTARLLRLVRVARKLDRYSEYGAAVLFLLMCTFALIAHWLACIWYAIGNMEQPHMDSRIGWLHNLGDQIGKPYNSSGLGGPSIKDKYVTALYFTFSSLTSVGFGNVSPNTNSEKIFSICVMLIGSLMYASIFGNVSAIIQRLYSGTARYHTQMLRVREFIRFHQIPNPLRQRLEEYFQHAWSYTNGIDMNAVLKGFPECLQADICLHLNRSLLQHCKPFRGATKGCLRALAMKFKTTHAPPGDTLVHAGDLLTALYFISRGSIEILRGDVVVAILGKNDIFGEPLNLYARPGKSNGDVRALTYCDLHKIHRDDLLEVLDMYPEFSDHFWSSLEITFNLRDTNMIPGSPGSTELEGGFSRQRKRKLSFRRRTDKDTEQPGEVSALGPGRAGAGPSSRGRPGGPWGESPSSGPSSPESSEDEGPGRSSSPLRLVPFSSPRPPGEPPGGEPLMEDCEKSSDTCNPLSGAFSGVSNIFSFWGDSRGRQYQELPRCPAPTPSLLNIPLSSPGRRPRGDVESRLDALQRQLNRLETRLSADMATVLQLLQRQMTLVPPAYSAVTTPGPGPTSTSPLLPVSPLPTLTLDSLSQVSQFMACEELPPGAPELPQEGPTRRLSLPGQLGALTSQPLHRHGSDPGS

Row | Structure (SMILES) | hERG current change (%, negative = inhibition) at 1uM
1 | O=C(O)CNS(=O)(=O)c1ccc2[nH]c(=O)c(=O)[nH]c2c1 | 14.6%
2 | O=C(CSc1cccc[n+]1[O-])c1ccc(Cl)cc1 | 0.232%
3 | O=C(CCc1ccccc1)Nc1ccc(S(=O)(=O)N2CCOCC2)cc1 | 6.41%
4 | Cc1cccc(Nc2nc(C)cc(C)c2C#N)c1 | 10.9%
5 | O=C(CS(=O)(=O)c1ccccc1)Nc1nnc(C(F)(F)F)s1 | 19.3%
6 | O=C(NC(Cc1ccccc1)c1ccc2c(c1)OCCCO2)c1ccc(F)cc1 (stereo not drawn) | 7.49%
7 | C=CCN=C(SCC(=O)c1ccc(Cl)cc1)c1c(O)n(C)c(=O)n(C)c1=O | 1.99%
8 | CC(c1ccccc1)N(C)C(=O)CSc1nnc(C2CC2)n1C1CC1 (stereo not drawn) | 3.78%
9 | CCc1ccc(C(=O)NNc2cc(Cl)ccc2Cl)cc1 | 12.5%
10 | CC(=O)c1cc(C(C)=O)c(C)nc1C | 12.2%
11 | O=C(CSc1cc(Cl)ccc1Cl)NC1CCCC1 | 8.37%
12 | O=C1CCC(C(=O)N2CCSCC2)CN1Cc1ccc(Cl)cc1 (stereo not drawn) | 12.3%
13 | Cc1ccc(NC(=O)c2ccc(C)c(S(=O)(=O)N3CCCCC3)c2)nc1 | 8.78%
14 | CN(C)S(=O)(=O)c1cc(NC2CC(=O)N(c3ccc(F)cc3)C2=O)ccc1Cl (stereo not drawn) | -20.9%
15 | O=c1c2ccccc2nc(CNc2ccccc2)n1-c1ccccc1 | 12.9%
16 | CC(=O)c1cccc(OCC(=O)Nc2cc(S(=O)(=O)N3CCOCC3)ccc2N2CCCC2)c1 | 10.9%
17 | CCc1ccccc1N1C[C@@]23C=C[C@@H](O2)C(C(=O)OCC(C)C)[C@H]3C1=O (stereo partly drawn) | -0.721%
18 | Cc1cc(NC(=O)Cc2cccs2)no1 | 11.1%
19 | COC(=O)CSc1nnc(CNC(=O)c2cc(OC)c(OC)c(OC)c2)n1C | -0.921%
20 | O=C(COc1ccccc1Cl)NCc1nc(-c2ccccc2)no1 | 13.2%
21 | CCCN(C1CCS(=O)(=O)C1)S(=O)(=O)c1ccc(F)cc1 (stereo not drawn) | 5.9%
22 | CCCCOC(=O)Nc1ccc(C(C)C)cc1 | 9.54%
23 | COC(=O)c1c(NC(=O)C2CC(=O)NN2Cc2ccccc2)sc(C)c1C (stereo not drawn) | 7.96%

Row | Structure (SMILES) | hERG current change (%, negative = inhibition) at 1uM
24 | CCSc1ccccc1C(=O)N1CCN(c2ccccc2F)CC1 | 20.7%
25 | COCCN(C(=O)CSc1cc(C)c2ccccc2n1)c1c(N)n(CC(C)C)c(=O)[nH]c1=O | 7.69%
26 | Cc1cc(C)n(-c2ccc(C(C)C)cc2)c(=O)c1C#N | 16.9%
27 | O=C(Nc1nc2ccc(F)cc2s1)C1CCCO1 (stereo not drawn) | 2.03%
28 | COC(=O)CNC(c1ccccc1Cl)c1cc(Br)ccc1NC(=O)CCN1CCOCC1 (stereo not drawn) | -1.11%
29 | O=C(CN1CCN(S(=O)(=O)c2cccs2)CC1)NCC1CCCCC1 | -8.89%
30 | COc1ccc(/C=N/N2C(=O)CSC2=S)cc1 | 10.5%
31 | CSc1nsc(NC(=O)Cc2ccccc2)n1 | 8.95%
32 | CCOC(=O)C1CCCN(S(=O)(=O)Cc2ccc(Cl)cc2)C1 (stereo not drawn) | 8.79%
33 | Cc1nn(-c2ccccc2)c(C)c1/C=N/NC(=O)c1cc(C2CC2)[nH]n1 | 4.75%
34 | COc1cc(/C=N/NC(=O)CCN2CCCCC2)ccc1O | 6.8%
35 | CCn1c(O)c(C=Nc2ccccc2)n(-c2ccccc2)c1=S | 9.73%
36 | CCOC(=O)C1=C(COC(=O)CCOc2cc(C)ccc2C)NC(=O)NC1C (stereo not drawn) | 1.31%
37 | O=C(c1ccc2c3n(nc2c1)-c1ccc(Cl)cc1CO3)N1CCCCC1 | -1.57%
38 | Cc1cccc(Cn2cc(/C=C/[N+](=O)[O-])c3ccccc32)c1 | -2.15%
39 | CCCN(CC1CC1)c1nc(N)c(C#N)c(CC#N)c1C#N | 10.3%
40 | Cc1ccc(S(=O)(=O)NCCc2nc3ccccc3[nH]2)cc1 | 11.1%
41 | CCN1CCN(C(=S)Nc2cccc(C(F)(F)F)c2)CC1 | 3.67%
42 | Cc1occc1-c1nnc(SCC(=O)Nc2ccccc2)n1Cc1ccccc1 | -19.2%
43 | Cc1ccc(C(=O)NNC(=O)c2ccc3c(c2)OCCO3)cc1 | 4.72%
44 | CN1C(=O)NC(c2ccc(O)cc2)C2=C1CN(c1ccccc1)C2=O (stereo not drawn) | 8.29%
45 | O=C(CC(=O)N/N=C/c1ccc(Cl)cc1Cl)NCc1ccccc1 | 2.74%
46 | Cn1cccc1C(=O)NCc1ccc(Cl)cc1 | 10.2%

Row | Structure (SMILES) | hERG current change (%, negative = inhibition) at 1uM
47 | CCOC(=O)N1CCN(C(=O)c2ccc3nc(SCc4ccc(F)cc4)n(C)c3c2)CC1 | -2.71%
48 | CNC(=O)c1ccc(NC(=O)Cc2ccc(S(=O)(=O)N3CCOCC3)s2)cc1 | 15.6%
49 | COc1cc(C(=O)NCC2CCCCC2)cc(OC)c1OC | -18.8%
50 | COc1cccc(/C=N/NC(=O)c2[nH]c(C)c(C(=O)N/N=C/c3cccc(OC)c3O)c2C)c1O | 11.9%
51 | CCOC(=O)c1sc(NC(=O)c2cc(-c3ccccc3)nc3ccccc23)c(C#N)c1C | 16.7%
52 | CCCN(CCC)CCNC(=O)C1c2ccccc2C(=O)N2CCc3ccccc3C12 (stereo not drawn) | 0.0598%
53 | CCCCOc1ccc(CC(=O)NCC(=O)O)cc1 | 6.2%
54 | CCOC(=O)c1c(NC(=O)Cn2cc([N+](=O)[O-])cn2)sc2c1CCC2 | 4.74%
55 | Cc1csc2ncnc(NC3CCN(Cc4ccccc4)CC3)c12 | -35.4%
56 | Cc1nc(C)c(-c2ccc(SCC(=O)Nc3cccc(F)c3)nn2)s1 | 11.7%
57 | Cc1ccc(S(=O)(=O)/N=C(/Nc2cccc3ccccc23)c2ccc(F)cc2)cc1 | 11.9%
58 | CC(=O)Nc1c(C(=O)N2CCCCCC2)cnn1-c1ccccc1Cl | 13.4%
59 | Cc1ccnc(NC(=O)c2ccc(S(=O)(=O)N3CCC(C)CC3)cc2)c1 | 3.14%
60 | O=C(c1cc(Sc2cccc(Cl)c2)nc2ccccc12)N1CCN(c2ccccn2)CC1 | 8.49%
61 | CCCN(CC(=O)Nc1ccccc1C)C(=O)c1ccc(N2CCCC2=O)cc1 | 10.1%
62 | CCCC(C)NC(=O)c1cc(S(=O)(=O)N2CCCCCC2)ccc1OC (stereo not drawn) | -15%
63 | O=C(Nc1nnc(-c2ccccc2)o1)c1cccc(N2C(=O)CCC2=O)c1 | 3.4%
64 | CC1CCCN(CCCNC(=O)c2ccc(NC(=O)C3=CSCCO3)cc2)C1 (stereo not drawn) | 14.5%
65 | COc1ccc(-c2nnn(CC(=O)NC3CCCc4ccccc43)n2)cc1OC (stereo not drawn) | 16.9%
66 | NNC(=O)C=C1CCN(c2ncc(C(F)(F)F)cc2Cl)CC1 | 8.75%
67 | O=C(CCN1CCCCC1)N=Nc1c(O)[nH]c2ccccc12 | 10.4%
68 | CCOc1ccccc1N(CC(=O)OC)S(=O)(=O)c1ccccc1 | 5.24%
69 | CNS(=O)(=O)c1cc(N(C)S(=O)(=O)c2ccc(C)cc2)c(C)cc1C | -2.79%

Row | Structure (SMILES) | hERG current change (%, negative = inhibition) at 1uM
70 | O=C(COC(=O)C1CC2C=CC1C2)NCCc1ccccc1 (stereo not drawn) | 14.9%
71 | CC(CC1CC(C)(C)OC1=O)C(=O)Nc1nncs1 (stereo not drawn) | 6.85%
72 | COc1ccc(OCCOC(=O)c2cccc(-n3cnnn3)c2)cc1 | 2.3%
73 | OCCNc1nc(Nc2ccccc2OC(F)(F)F)nc(N2CCCC2)n1 | 13%
74 | CCn1nc(C)c(CCC(=O)O)c1C | 8.42%
75 | CCOc1ccc(CCNC(=O)CCS(=O)(=O)c2ccc(OC)cc2)cc1OCC | -0.56%
76 | COc1ccc(S(=O)(=O)Nc2cc(C(=O)NC(C)C)ccc2N2CCOCC2)cc1 | 7.51%
77 | Cc1c(N=Nc2c(O)[nH]c(=S)[nH]c2=O)c(=O)n(-c2ccccc2)n1C | 12.6%
78 | Cc1ccc(-n2cnn(-c3ccc([N+](=O)[O-])cc3[N+](=O)[O-])c2=O)cc1 | 13%
79 | CC(NC(=O)CN1C(=O)c2ccccc2C1=O)c1ccccc1 (stereo not drawn) | 6.37%
80 | O=C(c1cc(=O)[nH]c2ccccc12)N1CCN(S(=O)(=O)c2ccc3ccccc3c2)CC1 | 12.4%
81 | C=CCOc1ccc(/C=C/C(=O)OCC(=O)Nc2c(C)n(C)n(-c3ccccc3)c2=O)cc1 | 1.63%
82 | O=C(COC(=O)c1ncc(Cl)c(Cl)c1Cl)NNC(=O)c1ccccc1 | 14.6%
83 | Nc1ccc(S(=O)(=O)Nc2ccccn2)cc1 | 14.1%
84 | Cc1cc2c(cc(C(=O)OCC(=O)NCc3ccco3)n2C)s1 | 6.5%
85 | Cc1cc(Cl)ccc1N=c1ssnc1Cl | 13.5%
86 | Cc1ccc(C(=O)N(Cc2cccs2)C2CCS(=O)(=O)C2)cc1 (stereo not drawn) | 16.6%
87 | COc1cccc(/C=C2/C(=O)NN(c3ccc(Br)cc3)C2=O)c1O | 12.6%
88 | O=C(Nc1cccc(Cl)c1N1CCCC1)c1ccc(Br)o1 | -5.81%
89 | COc1cc(CNc2ccc3[nH]c(=O)[nH]c3c2)ccc1OCc1ccc(F)cc1Cl | 5.61%
90 | CCN(CC)S(=O)(=O)c1ccc2c(c1)nc(CCC(=O)Nc1cccc(C(F)(F)F)c1)n2CC | 10.8%

From article PMC4336329 (PLoS ONE, 2015)
